Laboratory results from publication PMC10433847, “The Plasmodium Lactate/H^+ Transporter PfFNT Is Essential and Druggable In Vivo” (Antimicrobial Agents and Chemotherapy, 2023).

How the values were obtained:
[1] = test system: rapamycin-treated G107S mutant parasites; test: EC50 of conditional PfFNT line, rapamycin-treated G107S mutant (SYBR Green); conditions: 96 h, mean ± SEM
[2] = test system: DMSO-treated wild-type parasites (NF54 diCre conditional PfFNT G107S line); test: EC50 of conditional PfFNT line, DMSO-treated wild-type (SYBR Green); conditions: 96 h, mean ± SEM
[3] = test system: P. falciparum parasites with PfFNT G107S mutation; test: EC50 determination by flow cytometry, drug-selected parasites with PfFNT G107S; assay type: cell-based, Plasmodium falciparum; conditions: G107S mutation vs 3D7 wild-type
Method: P. falciparum parasites, 3D7, were cultured in RPMI 1640 medium supplemented with 0.5% Albumax with 0+ erythrocytes (University Medical Center Hamburg-Eppendorf, Hamburg, Germany) at a 5% hematocrit at 37°C in an atmosphere containing 5% CO2, 1% O2, and 94% N2 under standard conditions ([31]). To obtain resistant parasites, 50 mL of parasite culture, starting with 5 × 10^8 to 6 × 10^8 parasites, were exposed to 3 × IC50 of either MMV007839 or BH267.meta until parasitemia was established again (around 2 weeks). For sequencing of the fnt gene, genomic DNA from the susceptible and resistant P. falciparum parasite lines was obtained from 5 mL of culture using the QIAamp DNA minikit (Qiagen, Hilden, Germany). The primer sequences used to sequence the entire fnt gene are available in Table S2. To determine the EC50, asynchronous parasites (0.5% to 1% starting parasitemia) were exposed to serial dilutions of the drug and grown for 2 days with one change of medium (including the appropriate concentration of drug), after which the parasitemia was determined using an LSR II FACS (BD Biosciences, Franklin Lakes, NJ) as previously described ([32]). The data were analyzed in GraphPad Prism to determine EC50 values.

`O=C(/C=C(\O)C(F)(F)C(F)(F)F)c1cccnc1` [BH267.meta] showed an EC50 [1] of 38.8 ± 1.96 µM and an EC50 [2] of 0.173 ± 0.078 µM.

With `COc1ccc(C(=O)/C=C(\O)C(F)(F)C(F)(F)F)cc1` [BH296] the EC50 [1] was 15 ± 0.746 µM, the EC50 [2] was 4.04 ± 1.08 µM and the “fold increased IC50” value [3] was 2.8 fold.

With `COc1ccc2c(c1)OC(O)(C(F)(F)C(F)(F)F)CC2=O` (stereo not shown) [MMV007839] the EC50 [1] was 47.7 ± 1.06 µM and the EC50 [2] was 0.148 ± 0.048 µM.
